Measured values as given in PubChem BioAssay AID588692 (Broad Institute, 2011).
The whole screen tested about 360,000 compounds, of which about 830 (0.23%) were called active. The shares of active, inactive and inconclusive entries below differ from those in the screen.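 Rule for the calls: active = mean luciferase reporter signal, scaled so untreated is 0 and the glycosylation-blocking control 100, at or above a set limit in every replicate; inconclusive = mean reaches the limit but not every replicate does; inactive = mean below the limit.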

Assay: increase of ERlucT glycosylation luciferase signal, primary screen, N-linked glycosylation inhibitor project, D54 ERlucT cells, luminescence, set 2 (AID 588692);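 note: luciferase carries N-glycosylation sites so blocking glycosylation raises the light; 0% = median of neutral control wells and 100% = median of 100 nM tunicamycin wells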
Conditions: 24 h, at 12.5 µM, active compounds read high, percent of 100 nM tunicamycin response
With `COc1cc2c(cc1OC)CN(c1ccc(C(F)(F)F)cn1)CC2` the reporter increase was inconclusive: 46.5%. For `Cn1c(=O)cc(OCCCC(=O)Nc2ccc3c(c2)OCCO3)c2ccccc21`, the reporter increase was inconclusive: 25.4%. With `CC1=NCCN1CCNC(=O)Nc1ccc(C(C)(C)C)cc1` the reporter increase was inactive: 0.369%. With `CCOC(=O)Nc1c2ccccc2nc2ccccc12` the reporter increase was active: 34.3%. For `COc1ccc(C2=NOC(C(=O)NCc3ccc(F)cc3)C2)cc1` (centres undefined), the reporter increase was inconclusive: 28.6%. For `CN(C)CCNC(=O)c1cccc2nc3c(ccc4ccccc43)nc12`, the reporter increase was active: 56.3%. In the case of `Cc1cc(NCCN2CCOCC2)c2ccc3ccccc3c2n1`, the reporter increase is reported as active: 38.4%. For `CCOc1ccc2c(c1)OC(c1ccc(OC)cc1)(C(F)(F)F)NC2=O` (centres undefined), the reporter increase was inconclusive: 32.3%. With `CN(CC(O)COCc1cccs1)C1CCCCC1` (centres undefined) the reporter increase was inactive: -0.0965%. In the case of `CCn1nc(C)c(CNC(=O)c2ccc(OC3CCN(Cc4ccccn4)CC3)cc2)c1C`, the reporter increase is reported as inactive: 2.24%. With `CC(=O)c1cccc2c(O)c(C3=Nc4ccccc4C3=O)[nH]c12` the reporter increase was inactive: 11.2%. In the case of `Cc1ccc(CN2CCN(/N=C/c3cccnc3)CC2)cc1`, the reporter increase is reported as inactive: -6.13%. For `Cc1ccc(OCCNC(=O)C(=O)NCc2ccco2)cc1`, the reporter increase was active: 26.4%. For `COc1ccc2nc(-c3ccco3)c(-c3ccco3)nc2c1`, the reporter increase was active: 32.7%. For `COc1ccccc1/C=N/NC(=O)c1ccc(-c2ccccc2)cc1`, the reporter increase was inactive: 1.5%. With `CCCCc1cc(=O)oc2cc(OCc3nn[nH]n3)ccc12` the reporter increase was inactive: 1.62%. In the case of `Cc1ccc(C(=O)CSc2nn3c(=O)c(C(C)(C)C)nnc3s2)cc1`, the reporter increase is reported as inconclusive: 37.1%. In the case of `C[C@@]12C(=O)Nc3cc(F)c(F)cc3C(=O)N1[C@H]1c3ccccc3OC[C@@H]1[C@@H]2c1ccccc1`, the reporter increase is reported as inconclusive: 25.6%. For `COc1cccc(-c2sc3ccccc3c2-c2ccc(OCCN3CCCCC3)cc2)c1`, the reporter increase was inactive: -5.21%. In the case of `COCCCN(C(=O)CCOc1ccc(C)cc1)c1c(N)n(Cc2ccccc2)c(=O)[nH]c1=O`, the reporter increase is reported as inactive: -0.505%. For `Nc1cccc2c1C(=O)N(C(=O)/C=C/c1cccc(Br)c1)C2=O`, the reporter increase was inconclusive: 27.3%. In the case of `COc1ccc(NC(=O)CCN2CCN(c3ccc(F)cc3)CC2)cc1`, the reporter increase is reported as inactive: 1.05%. For `CCN(CC)c1ccc(/C=C/c2cccc[n+]2C)c(OC)c1`, the reporter increase was active: 27.8%. In the case of `COc1cc(C#Cc2ccc3cc(CCCO)oc(=O)c3c2)cc(OC)c1`, the reporter increase is reported as inconclusive: 27.3%. In the case of `Cn1c(=O)[nH]c(=O)c2c1nc(N1CCN(Cc3ccccc3)CC1)n2CCCc1ccccc1`, the reporter increase is reported as active: 37.1%. In the case of `O=C(c1cccc(F)c1F)N1CCCC1`, the reporter increase is reported as inactive: 0.873%. With `COc1cc2c(cc1OC)CN(c1ccc3ccccc3n1)CC2` the reporter increase was inconclusive: 31.3%. For `COc1cc(/C=N/Nc2nc3c(c(=O)n(C)c(=O)n3C)n2Cc2ccccc2)ccc1OC(=O)c1ccco1`, the reporter increase was inconclusive: 31.4%. In the case of `COc1ccc(-c2cc(=O)n(-c3nc4ccccc4[nH]3)[nH]2)cc1`, the reporter increase is reported as inconclusive: 26.2%. With `Cc1cc(C)c(NC(=O)CSc2nc(COc3ccccc3)nc3ccccc23)c(C)c1` the reporter increase was inconclusive: 29.9%. In the case of `O=C(CCl)N1CCCC1c1ccc2c(c1)OCCO2` (centres undefined), the reporter increase is reported as inconclusive: 58.2%. With `COc1cc(/C=C2\CCC/C(=C\c3ccc(O)c(OC)c3)C2=O)ccc1O` the reporter increase was inconclusive: 27.4%. In the case of `COc1ccc(NC(=O)C2(C)Cc3c(-c4cccc(C(N)=O)c4)ccnc3O2)cc1` (centres undefined), the reporter increase is reported as inconclusive: 28.2%. With `CCOC(=O)c1cc2sccc2n1CC(=O)N1CCc2ccccc21` the reporter increase was inconclusive: 25.2%. In the case of `Cn1c2ccccc2c2ccc3c(c21)C(=O)C=CC3=O`, the reporter increase is reported as inconclusive: 26.9%. In the case of `COc1cc(NC(=O)c2ccccc2F)ccc1NC(=O)c1cc2ccccc2o1`, the reporter increase is reported as inconclusive: 25.1%. For `COC(=O)c1ccccc1NC(=O)Cn1nnc(-c2ccc(OC)cc2)n1`, the reporter increase was inconclusive: 25.1%. With `COc1ccccc1C(=O)Nc1ccc2c(c1)nc(CCNC(=O)c1ccco1)n2C` the reporter increase was inconclusive: 25.8%. For `CCCN1C(=O)C(=O)c2cc(C)ccc21`, the reporter increase was inconclusive: 27.5%. With `CCCCc1ccc(N/C(N)=N/c2nc(C)cc(C)n2)cc1` the reporter increase was inconclusive: 27.1%. In the case of `COC(=O)c1cc(C(=O)c2c(C)cc3ccccn23)cc([N+](=O)[O-])c1`, the reporter increase is reported as inconclusive: 26.4%. For `COc1cc2cnc(-c3ccccc3)cc2cc1OC`, the reporter increase was inconclusive: 33%. With `O=C(Nc1cccc(-c2ccc(N3CCOCC3)nn2)c1)c1ccc(Cl)cc1` the reporter increase was inactive: -4.18%. For `COc1ccccc1-c1cc(NC=O)c2ncc(-c3cccc(C(C)=O)c3)n2c1`, the reporter increase was inconclusive: 27.3%. For `CCNc1nc(NC(C)(C)C)nc(SC(C(C)=O)C(C)=O)n1`, the reporter increase was inconclusive: 29.7%. With `COc1cc(Nc2c3c(nc4ccccc24)CCCC3)cc(OC)c1OC` the reporter increase was inconclusive: 27.6%. In the case of `CN(C)CCCN(C(=O)c1ccc(S(=O)(=O)N2CCc3ccccc3C2)cc1)c1nc2ccc(F)cc2s1`, the reporter increase is reported as inconclusive: 32.1%. For `CC1(C)CC(N=c2cc(-c3ccccc3)oc3ccc(Cl)cc23)CC(C)(C)N1`, the reporter increase was inconclusive: 37.8%. For `COc1ccccc1N1CCN(C(=O)c2oc3ccccc3c2C)CC1`, the reporter increase was inconclusive: 27.3%. With `O=C(Cc1ccccc1F)Nc1ccc(Cl)nc1` the reporter increase was inactive: 0.306%. For `CCSC1(SCC)N=C(N)C2(C#N)C(c3ccc(OC)c(OC)c3OC)C12C#N` (centres undefined), the reporter increase was inconclusive: 32.1%. For `COc1ccc(S(=O)(=O)Nc2ccc3c(c2)n(C)c(=O)n3C)cc1OC`, the reporter increase was inconclusive: 25.9%. With `Cc1ccc(S(=O)(=O)NC2=C(N3CCN(Cc4ccccc4)CC3)C(=O)c3ccccc3C2=O)cc1` the reporter increase was active: 65.3%. For `CCNC(=O)COc1ccc(/C=C2\COc3ccccc3C2=O)cc1OC`, the reporter increase was inconclusive: 31.3%. For `Fc1ccccc1CNc1nc(NCC2CC2)nc2ccsc12`, the reporter increase was inactive: -2.21%. In the case of `COc1cc(OC)c(N2CC(C(=O)Nc3cc(Cl)ccc3N3CCOCC3)CC2=O)cc1Cl` (centres undefined), the reporter increase is reported as inconclusive: 25.7%. In the case of `COc1ccc2oc(-c3ccccc3[N+](=O)[O-])cc(=O)c2c1`, the reporter increase is reported as inconclusive: 30%. For `CCN(CC)S(=O)(=O)c1cccc(C(=O)Nc2nc3cc4c(cc3s2)OCCO4)c1`, the reporter increase was inactive: -4.83%. In the case of `CCCCNC(=O)/C(=C/c1ccccc1)NC(C)=O`, the reporter increase is reported as inactive: 1.02%. For `Cc1cc(C)c2sc(NC(=O)c3ccc([N+](=O)[O-])o3)nc2c1`, the reporter increase was active: 44%. In the case of `Cc1noc(C)c1COc1ccccc1C(=O)N1CCN(c2cccc(C(F)(F)F)c2)CC1`, the reporter increase is reported as inconclusive: 28.3%. In the case of `COC(=O)/C=C/C(=O)Nc1cccc(C(F)(F)F)c1`, the reporter increase is reported as inconclusive: 30.3%. For `COc1ccc(OC)c(NC(=O)c2ccc(-c3cccs3)cc2)c1`, the reporter increase was inactive: 1.75%. With `Cc1ccc(-c2nc(NCCN(C)C)c3ccccc3n2)cc1` the reporter increase was inconclusive: 31.1%. In the case of `COc1ccc(CCn2c(=N)c(C(=O)NCCN3CCOCC3)cc3c(=O)n4cccc(C)c4nc32)cc1OC`, the reporter increase is reported as inconclusive: 25.5%. With `CC(=O)Nc1ccc(/C=C/C(=O)c2ccc3c(c2)OCCO3)cc1` the reporter increase was inconclusive: 29.9%. With `Cc1cc(C(C2C(=O)CC(C)(C)CC2=O)C2C(=O)CC(C)(C)CC2=O)cc(C)c1OC(F)F` the reporter increase was inactive: -0.031%. With `CNc1c(N)c(=O)oc2ccccc12` the reporter increase was inactive: -1.36%. With `COc1cc(NC(=O)c2cc(-c3ccccc3)nc3c2cnn3C(C)C)cc(OC)c1OC` the reporter increase was inconclusive: 25.1%. For `Cc1cc2nnc(SCC(=O)NCc3cccs3)n2c2ccccc12`, the reporter increase was inconclusive: 30.5%. With `CCCCCCCC[n+]1cccc2c3ccccc3ccc21` the reporter increase was inconclusive: 30.6%. For `COc1cc(-c2nc3cnccn3c2Nc2ccc(C(C)C)cc2)ccc1O`, the reporter increase was inconclusive: 41%. In the case of `Cc1ccc(/C(C#N)=C\c2ccc(N3CCOCC3)o2)cc1`, the reporter increase is reported as inconclusive: 29.6%. With `CC(C)CN(C(=O)COC(=O)c1ccc(Br)cc1)c1c(N)n(Cc2ccccc2)c(=O)[nH]c1=O` the reporter increase was inconclusive: 36.9%. For `Cc1ccc2nc(-c3ccc(NC(=O)Cc4cccs4)cc3)[nH]c2c1`, the reporter increase was inconclusive: 43.2%. In the case of `Cc1cc2c(=Cc3ccc(N(C)C)cc3)c3ccccc3n2[n+]1C`, the reporter increase is reported as active: 66.4%. For `CN(C)S(=O)(=O)c1ccc(N2CCCC2)c(C(=O)Nc2cccc(F)c2)c1`, the reporter increase was active: 48.8%. In the case of `CCCCCCCCC[n+]1cccc2c3ccccc3ccc21`, the reporter increase is reported as inconclusive: 28.9%. For `O=C(N/N=C/c1ccco1)c1cc(-c2ccncc2)nc2ccccc12`, the reporter increase was active: 28.1%. With `CN(C)c1ccc(C=c2c3ccccc3n3c2cc(-c2ccccc2)[n+]3C)cc1` the reporter increase was inconclusive: 45.9%. With `COc1ccc(OC)c(-c2nnc3n2N=C(c2ccc(OC)c(OC)c2)CS3)c1` the reporter increase was inconclusive: 25.9%. For `O=C(Nc1cccc(C(F)(F)F)c1)c1ccc2sc([C@H]3C[C@H](O)[C@@H](CO)O3)nc2c1`, the reporter increase was inactive: -1.12%. In the case of `CC(C)C(c1nnnn1Cc1cccs1)N1CCN(C2CCCC2)CC1` (centres undefined), the reporter increase is reported as inactive: -4.41%. In the case of `CCCCCC(=O)N/N=C/c1cc(Br)c(O)c(OC)c1`, the reporter increase is reported as inactive: 0.891%. For `O=C(Cc1cccs1)Nc1ccc(-c2nc3ccccc3[nH]2)cc1`, the reporter increase was active: 33.2%. In the case of `O=c1c2c3c(sc2ncn1/N=C/c1ccc([N+](=O)[O-])o1)CCCC3`, the reporter increase is reported as inconclusive: 36.3%. For `COc1ccccc1N(CC(=O)N/N=C/c1ccc(OCC(=O)NCc2ccco2)cc1)S(=O)(=O)c1ccc(C)cc1`, the reporter increase was inactive: -8.86%. With `O=C(N/N=C/c1ccc(F)cc1)c1sccc1OCc1ccc(F)cc1` the reporter increase was inconclusive: 30.6%. For `CCc1ccc(OCC(=O)NC(NC(=S)Nc2ccc(Cl)cc2)C(Cl)(Cl)Cl)cc1` (centres undefined), the reporter increase was inconclusive: 25.3%.
